# According to the supplement of paper PMC4967469:
# Lines with a small IC50 respond at low doses; fits outside the tested doses are given as limits. AUC, from the same fit, is the share of area under the viability curve across the 256-fold dose range; the more sensitive the line, the further below 1. For some assays here: The top dose, if marked as inferred, comes from the curve model; the source does not state it.
# What was measured:
# Test in all cases: Viability of human cancer cell lines after 72 h of drug (GDSC screen)
# Rapamycin = compound: CO[C@H]1C[C@@H]2CC[C@@H](C)[C@@](O)(O2)C(=O)C(=O)N2CCCC[C@H]2C(=O)O[C@H]([C@H](C)C[C@@H]2CC[C@@H](O)[C@H](OC)C2)CC(=O)[C@H](C)/C=C(\C)[C@@H](O)[C@@H](OC)C(=O)[C@H](C)C[C@H](C)/C=C/C=C/C=C/1C [Rapamycin]; details: top dose 0.1 µM; top dose inferred
# Method: (§1)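 Human cancer cell lines in 384-well plates, medium with 10% serum, drug for 72 h over a 256-fold dose range (nine 2-fold or five 4-fold steps up to the top dose). Adherent lines were fixed and stained with the nucleic acid dye Syto60, suspension lines read with resazurin; signal relative to control wells, capped at 0 and 100%. One two-parameter sigmoid per drug and line, fitted in a mixed model over all curves with the slope shared within a line.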
# IPA-3 = compound: Oc1ccc2ccccc2c1SSc1c(O)ccc2ccccc12 [IPA-3]; details: top dose 32 µM; top dose inferred
# Method: as §1
# Temozolomide = compound: Cn1nnc2c(C(N)=O)ncn2c1=O [Temozolomide]; details: top dose 30 µM
# Method: as §1
# Tubastatin A = compound: CN1CCc2c(c3ccccc3n2Cc2ccc(C(=O)NO)cc2)C1 [Tubastatin A]; details: top dose 20 µM
# Method: as §1
# Z-LLNle-CHO = compound: CCCC[C@@H](C=O)NC(=O)[C@H](CC(C)C)NC(=O)[C@H](CC(C)C)NC(=O)OCc1ccccc1 [Z-LLNle-CHO]; details: top dose 2.56 µM; top dose inferred
# Method: as §1
# CI-1040 = compound: O=C(NOCC1CC1)c1ccc(F)c(F)c1Nc1ccc(I)cc1Cl [CI-1040]; details: top dose 10 µM; top dose inferred
# Method: as §1
# XL-880 = compound: COc1cc2c(Oc3ccc(NC(=O)C4(C(=O)Nc5ccc(F)cc5)CC4)cc3F)ccnc2cc1OCCCN1CCOCC1 [XL-880]; details: top dose 5.12 µM; top dose inferred
# Method: as §1
# JW-7-52-1 = compound: CCC(=O)N1CCN(c2ccc(-n3c(=O)ccc4cnc5ccc(-c6cnc7ccccc7c6)cc5c43)cc2C(F)(F)F)CC1 [JW-7-52-1]; details: top dose 1.2 µM; top dose inferred
# Method: as §1
Cell Line,AUC (Rapamycin),IC50 (Rapamycin),AUC (IPA-3),IC50 (IPA-3),AUC (Temozolomide),IC50 (Temozolomide),AUC (Tubastatin A),IC50 (Tubastatin A),AUC (Z-LLNle-CHO),IC50 (Z-LLNle-CHO),AUC (CI-1040),IC50 (CI-1040),AUC (XL-880),IC50 (XL-880),AUC (JW-7-52-1),IC50 (JW-7-52-1)
"LAMA-84 (chronic myeloid leukaemia, suspension)",0.849,0.0766 µM,0.878,> 32 µM,0.974,> 30 µM,0.938,> 20 µM,0.783,1.09 µM,0.445,0.441 µM,0.265,0.0678 µM,0.351,0.0287 µM
"A4-Fuk (B-cell lymphoma, suspension)",0.573,0.01 µM,0.723,8.87 µM,0.887,> 30 µM,0.982,> 20 µM,0.729,0.741 µM,0.782,4.37 µM,0.821,3.13 µM,0.288,0.0184 µM
"L-540 (Hodgkin lymphoma, suspension)",0.87,0.0763 µM,0.827,16.7 µM,0.734,7.97 µM,0.978,> 20 µM,0.682,0.485 µM,0.976,> 10 µM,0.81,2.34 µM,0.728,0.305 µM
"BV-173 (chronic myeloid leukaemia, suspension)",0.809,0.0448 µM,0.833,17.3 µM,0.976,> 30 µM,0.815,9.35 µM,0.814,1.19 µM,0.6,1.13 µM,0.457,0.247 µM,0.338,0.0282 µM
"SUP-B15 (lymphoblastic leukaemia, suspension)",0.378,0.00293 µM,0.804,15.2 µM,,,0.779,7.79 µM,0.683,0.506 µM,0.653,1.63 µM,0.349,0.124 µM,0.379,0.0353 µM
"JVM-2 (lymphoid neoplasm, suspension)",0.892,> 0.1 µM,0.979,> 32 µM,0.806,19.6 µM,0.954,> 20 µM,0.86,> 2.56 µM,0.775,4.88 µM,0.76,2.19 µM,0.833,1.03 µM
"DSH1 (bladder, adherent)",0.904,> 0.1 µM,0.983,> 32 µM,0.988,> 30 µM,0.909,> 20 µM,0.656,0.423 µM,0.946,> 10 µM,0.879,4.86 µM,0.511,0.0802 µM
"LOUCY (T-cell lymphoblastic leukaemia, suspension)",0.92,> 0.1 µM,0.929,> 32 µM,0.989,> 30 µM,0.862,12.2 µM,0.691,0.489 µM,0.971,> 10 µM,0.516,0.35 µM,0.485,0.0687 µM
"KMS-12-BM (myeloma, suspension)",0.922,> 0.1 µM,0.943,> 32 µM,,,0.818,8.89 µM,0.814,1.1 µM,0.881,7.39 µM,0.794,1.92 µM,0.701,0.246 µM
"MY-M12 (leukaemia, suspension)",0.201,0.000709 µM,0.741,10.9 µM,,,0.672,4.03 µM,0.645,0.426 µM,0.773,4.41 µM,0.384,0.147 µM,0.173,0.00652 µM
"NCI-H64 (small cell lung carcinoma, suspension)",0.988,> 0.1 µM,0.817,12.4 µM,,,0.961,> 20 µM,0.815,0.977 µM,0.985,> 10 µM,0.809,1.88 µM,0.753,0.315 µM
"KG-1 (acute myeloid leukaemia, suspension)",0.943,> 0.1 µM,0.852,20.7 µM,0.988,> 30 µM,0.916,> 20 µM,0.944,> 2.56 µM,,,0.444,0.23 µM,0.762,0.385 µM
"MOLT-4 (lymphoblastic leukaemia, suspension)",0.855,0.0575 µM,0.818,13.9 µM,0.977,> 30 µM,,,0.775,0.826 µM,0.827,4.63 µM,0.562,0.456 µM,0.493,0.0719 µM
"NCI-H1963 (small cell lung carcinoma, suspension)",0.924,> 0.1 µM,0.848,19.4 µM,,,0.953,> 20 µM,0.862,1.74 µM,0.953,> 10 µM,0.841,2.92 µM,0.808,0.527 µM
"EHEB (lymphoid neoplasm, suspension)",0.747,0.0455 µM,0.698,9.42 µM,0.957,> 30 µM,,,0.779,1.58 µM,0.869,> 10 µM,,,0.694,0.342 µM
"MHH-NB-11 (neuroblastoma, adherent)",0.985,> 0.1 µM,0.984,> 32 µM,,,0.853,18 µM,0.9,> 2.56 µM,0.754,3.67 µM,0.631,0.765 µM,0.92,> 1.2 µM
"GCIY (stomach, adherent)",0.716,0.0279 µM,0.885,> 32 µM,,,0.969,> 20 µM,0.8,1.42 µM,0.857,9.86 µM,0.822,3.5 µM,0.239,0.0118 µM
"KASUMI-1 (acute myeloid leukaemia, suspension)",0.965,> 0.1 µM,,,0.98,> 30 µM,,,0.915,> 2.56 µM,0.689,2.13 µM,,,0.895,> 1.2 µM

Cell Line,AUC (Rapamycin),IC50 (Rapamycin),AUC (IPA-3),IC50 (IPA-3),AUC (Temozolomide),IC50 (Temozolomide),AUC (Tubastatin A),IC50 (Tubastatin A),AUC (Z-LLNle-CHO),IC50 (Z-LLNle-CHO),AUC (CI-1040),IC50 (CI-1040),AUC (XL-880),IC50 (XL-880),AUC (JW-7-52-1),IC50 (JW-7-52-1)
"CTB-1 (B-cell lymphoma, suspension)",0.84,> 0.1 µM,0.737,12.4 µM,0.965,> 30 µM,,,0.876,> 2.56 µM,0.887,> 10 µM,0.758,2.41 µM,0.649,0.226 µM
"LC-2-ad (lung adenocarcinoma, adherent)",0.172,0.000613 µM,0.81,17.3 µM,0.983,> 30 µM,0.853,16.2 µM,0.762,0.941 µM,,,0.401,0.17 µM,0.256,0.0147 µM
"RL95-2 (endometrium, adherent)",0.142,0.000482 µM,,,0.982,> 30 µM,0.981,> 20 µM,0.788,1.11 µM,0.507,0.654 µM,0.505,0.329 µM,0.193,0.00921 µM
"OMC-1 (cervix, adherent)",0.925,> 0.1 µM,0.903,> 32 µM,0.987,> 30 µM,0.983,> 20 µM,0.869,2.56 µM,,,0.756,1.83 µM,0.511,0.0803 µM
"THP-1 (acute myeloid leukaemia, suspension)",0.986,> 0.1 µM,0.99,> 32 µM,,,,,0.931,> 2.56 µM,0.937,> 10 µM,0.657,0.832 µM,0.917,> 1.2 µM
"NCI-H510A (small cell lung carcinoma, semi-adherent)",0.939,> 0.1 µM,0.96,> 32 µM,,,0.803,8.94 µM,0.875,2.16 µM,0.883,9.22 µM,0.665,0.88 µM,0.844,0.758 µM
"MZ7-mel (melanoma, adherent)",0.917,> 0.1 µM,0.972,> 32 µM,0.982,> 30 µM,0.868,19.4 µM,0.851,2.07 µM,,,0.595,0.587 µM,0.396,0.0386 µM
"HEL (acute myeloid leukaemia, semi-adherent)",0.738,0.0259 µM,0.602,3.61 µM,0.99,> 30 µM,0.825,9.4 µM,0.761,0.771 µM,,,0.834,2.58 µM,0.279,0.0202 µM
"NB17 (neuroblastoma, adherent)",0.914,> 0.1 µM,,,0.981,> 30 µM,0.853,19.4 µM,0.765,1.07 µM,0.882,> 10 µM,0.703,1.31 µM,0.555,0.108 µM
"HCC1599 (breast, suspension)",0.734,0.0325 µM,0.912,> 32 µM,,,0.872,> 20 µM,0.665,0.494 µM,,,0.696,1.24 µM,0.454,0.0551 µM
"IM-9 (myeloma, suspension)",0.987,> 0.1 µM,0.731,8.14 µM,0.935,> 30 µM,,,0.957,> 2.56 µM,0.913,> 10 µM,,,0.982,> 1.2 µM
"SCC-3 (B-cell lymphoma, suspension)",0.957,> 0.1 µM,0.993,> 32 µM,,,0.926,16 µM,0.763,0.699 µM,,,0.62,0.625 µM,0.603,0.133 µM
"KARPAS-231 (B-cell leukaemia, suspension)",0.286,0.00184 µM,0.628,4.12 µM,0.989,> 30 µM,,,0.796,0.901 µM,0.854,5.22 µM,,,0.372,0.0364 µM
"GA-10 (Burkitt lymphoma, suspension)",0.036,< 0.000391 µM,,,0.99,> 30 µM,,,0.787,0.928 µM,0.872,7.05 µM,,,0.199,0.0117 µM
"SIG-M5 (acute myeloid leukaemia, suspension)",0.687,0.018 µM,0.508,,,,0.785,6.4 µM,0.802,0.912 µM,,,0.499,0.317 µM,0.541,0.0941 µM
"NCI-H748 (small cell lung carcinoma, suspension)",0.915,> 0.1 µM,0.929,> 32 µM,,,0.914,> 20 µM,0.804,1.73 µM,,,0.827,4.35 µM,0.602,0.155 µM
"JAR (urogenital system, adherent)",0.925,> 0.1 µM,0.987,> 32 µM,0.956,> 30 µM,0.988,> 20 µM,0.884,> 2.56 µM,,,0.829,3.1 µM,0.576,0.121 µM
